The results in this text go back to PubChem BioAssay AID1745853 (National Center for Advancing Translational Sciences (NCATS), 2022).

Holding throughout (assay): Primary Screen for Target Class Profiling of Small Molecule Inhibitors of Methyltransferases
For test [1], the target named is Glycine N-methyltransferase (Homo sapiens) (UniProt Q14749). The settings on record: purified enzyme, MTase-Glo SAH luminescence; measured here: GNMT inhibition; at 40 µM; stronger effect = lower value. The gist of the method: (§1)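 Each enzyme was reacted with SAM and its substrate, with compounds tested once at 40 uM; SAH formed was read by MTase-Glo luminescence.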
Test [2] deals with Guanidinoacetate N-methyltransferase (Homo sapiens) (UniProt Q14353). The settings on record: purified enzyme, MTase-Glo SAH luminescence; measured here: GAMT inhibition; at 40 µM; stronger effect = lower value. The gist of the method: as §1
In test [3] the target is Histamine N-methyltransferase (Homo sapiens) (UniProt P50135). The settings on record: purified enzyme, MTase-Glo SAH luminescence; measured here: HNMT inhibition; at 40 µM; stronger effect = lower value. The gist of the method:
as §1

Test [4] concerns the target Nicotinamide N-methyltransferase (Homo sapiens) (UniProt P40261). The settings on record: purified enzyme, MTase-Glo SAH luminescence; measured here: NNMT inhibition; at 40 µM; stronger effect = lower value. The gist of the method: as §1
Test [5] addresses Phenylethanolamine N-methyltransferase (Homo sapiens) (UniProt P11086). The settings on record: purified enzyme, MTase-Glo SAH luminescence; measured here: PNMT inhibition; at 40 µM; stronger effect = lower value. The gist of the method: as §1

This is one part of the list. Shown are side measurements of this screen, not its main read-out; they come without a call.
% is scaled to controls: 0 for no effect and ±100 for the full control effect.

As to `CCCn1c(=O)c2ccccc2n2c(=O)n(CC(=O)NCc3cccc(OC)c3)nc12`, the activity change, negative = inhibition in test [1] was -6.04%; in test [2], 1.3%; in test [3], -1.45%; in test [4] it was -4.22%; in test [5], -4.19%.

As for `Cc1cc2c(C(C)C)c(O)c(O)c(C=O)c2c(O)c1-c1c(C)cc2c(C(C)C)c(O)c(O)c(C=O)c2c1O`, the activity change, negative = inhibition in test [1] was -67%; in test [2], 1.47%; in test [3], -28.4%; in test [4] it was -47.8%; in test [5] it was 5.56%.

Regarding `Fc1ccc2c(c1)C1C=CCC1C(c1ccc(Cl)cc1)N2` (stereo not drawn), the activity change, negative = inhibition was -8.36% in test [1]; -2.59% in test [2]; -10.4% in test [3]; -8.64% in test [4]; -10% in test [5].

As for `COc1ccccc1Nc1nc2c(S(=O)(=O)c3ccccc3)nnn2c2ccccc12`, the activity change, negative = inhibition in test [1] is 2.52%; in test [2], 0%; in test [3] it was 7.69%; in test [4], 4.93%; in test [5] it was 2.25%.

As to `COc1ccc(S(=O)(=O)NCCc2nc(-c3ccc(F)cc3)n[nH]2)cc1OC`, the activity change, negative = inhibition is 1.78% in test [1]; 0% in test [2]; 9.22% in test [3]; -2.58% in test [4]; 2.52% in test [5].

With `COc1ccc(N2CCN(CCNS(=O)(=O)c3ccc4c(c3)C(C)(C)C(=O)N4C)CC2)cc1`, the activity change, negative = inhibition was 3.11% in test [1]; 0% in test [2]; 0.545% in test [3]; -1.57% in test [4]; 2.3% in test [5].

Take `CC1(C(=O)NCc2ccc(Cl)cc2)Cn2c(ccc2-c2ccco2)C(=O)N1CCC1=CCCCC1` (stereo not drawn): the activity change, negative = inhibition in test [1] is -16.9%; in test [2], 0%; in test [3] it was -1.01%; in test [4], -19.7%; in test [5] it was -7.01%.

`FC(F)(F)c1ccc(CN2CC(N3CCc4ccccc43)C2)cc1`: the activity change, negative = inhibition in test [1] is -6.74%; in test [2] it was 1.26%; in test [3], 0.545%; in test [4], -2.32%; in test [5], -3.88%.

Turning to `NS(=O)(=O)c1ccc(N=Nc2c(O)[nH]c3ccc(Br)cc23)cc1`, the figures for the activity change, negative = inhibition in test [2], in test [4] and in test [5] were -8.77%, -26.2% and -3.89%, respectively.

In the case of `COc1ccc(Cl)cc1NC(=O)Cn1nc2n(CCCOC(C)C)c(=O)c3ccccc3n2c1=O`, the activity change, negative = inhibition in test [1] is 7.09%; in test [2], 1.46%; in test [3] it was 9.61%; in test [4], -1.07%; in test [5] it was 5.36%.

For `NC(=O)c1cccc(NC(=O)c2cccc(CN3CCNC(=O)C3)c2)c1`, the activity change, negative = inhibition in test [1] was -22.1%; in test [2], -1.5%; in test [3], -26.1%; in test [4] it was -5.96%; in test [5] it was -11.3%.

In the case of `OC[C@@H]1O[C@H](CNCc2ccc(F)cc2)[C@H](N2CCOCC2)[C@@H]1O`, the activity change, negative = inhibition in test [1] is -6.46%; in test [2] it was -10.1%; in test [3], -3.01%; in test [4], -19%; in test [5], -16.2%.

`CCn1cnnc1CC1CCN(C(=O)C2CCCN(S(=O)(=O)c3ccc4c(c3)oc(=O)n4C)C2)CC1` (stereo not drawn): the activity change, negative = inhibition is -2.86% in test [1]; 0% in test [2]; 2.24% in test [3]; -0.368% in test [4]; 1.46% in test [5].

With `COc1cccc(-c2nccc3c(=O)cc(N(C)C)oc23)c1`, the activity change, negative = inhibition in test [1] is -14.6%; in test [2] it was -10.9%; in test [3] it was -23.2%; in test [4], -24.9%; in test [5], -2.98%.

`Cc1ccc(Cn2c(=O)c3ccc(C(=O)NC4CCCC4)cc3n3c(=O)n(CC(=O)NC(C)C)nc23)cc1`: the activity change, negative = inhibition in test [1] turned out to be 6.45%; in test [2], 0%; in test [3], 6.6%; in test [4], 7.34%; in test [5], 7.14%.

Consider `CCOc1ccc(C(=O)Cn2nc3n(CCc4ccccc4)c(=O)c4ccccc4n3c2=O)cc1`, for which the activity change, negative = inhibition was -2.47% in test [1]; 3.19% in test [2]; -0.42% in test [3]; -1.96% in test [4]; -3.48% in test [5].

Regarding `O=C(C1CCCN1[S+](=O)([O-])c1cccs1)N1CCC(N2CCOCC2=O)CC1` (stereo not drawn), the activity change, negative = inhibition is -5.56% in test [1]; -4.81% in test [2]; -1.13% in test [3]; -7.64% in test [4]; 10.7% in test [5].

Regarding `CC(C)CCNC(=O)C1(C)Cn2c(ccc2-c2ccco2)C(=O)N1CCc1ccccc1` (stereo not drawn), the activity change, negative = inhibition was -4.13% in test [1]; 0% in test [2]; 2.07% in test [3]; -8.68% in test [4]; -2.75% in test [5].

As to `CCNC(=O)Nc1ccc(-c2nc3c(c(N4CCOCC4C)n2)CCN(C2COC2)C3)cc1` (stereo not drawn), the activity change, negative = inhibition in test [1] was -2.79%; in test [2], 3.67%; in test [3], 2.75%; in test [4], -13.3%; in test [5], -2.57%.

`C=CCCC(CN1CCCOCC1)Oc1cc(C#N)ccn1` (stereo not drawn): the activity change, negative = inhibition in test [1] is -2.81%; in test [2], 1.97%; in test [3], 0.715%; in test [4], -2.4%; in test [5], 12.2%.

As to `CC(C)(C(=O)O)C1CCOCC1`, the activity change, negative = inhibition in test [1] is -2.68%; in test [2], -7.42%; in test [3], -1.31%; in test [4], -14.9%; in test [5] it was -15.2%.

As to `CSc1cccc(N2C(=O)c3cc(C(C)(C)C)nn3CC2(C)C(=O)NCCC(C)C)c1` (stereo not drawn), the activity change, negative = inhibition was -2.56% in test [1]; 2.84% in test [2]; 0% in test [3]; -6.82% in test [4]; -2.03% in test [5].

Regarding `CCOC(=O)c1cc2n(n1)CC(C)(C(=O)NCCCOC)N(c1ccc(OC)c(OC)c1)C2=O` (stereo not drawn), the activity change, negative = inhibition in test [1] was 9.63%; in test [2], 2.57%; in test [3] it was 12.5%; in test [4], 11%; in test [5] it was 7.3%.

On to `COc1ccc(NC(=O)N2CCCC(Cc3noc(-c4ccncc4)n3)C2)cc1` (stereo not drawn), for which the activity change, negative = inhibition in test [1] is -8%; in test [2] it was -9.77%; in test [3], -10.4%; in test [4] it was -19.1%; in test [5], -12.3%.

Turning to `O=C(Nc1ccc2c(N3CCCC3)ncnc2c1)c1cc(F)ccc1Cl`, the activity change, negative = inhibition in test [1] was -33.6%; in test [2] it was -28%; in test [3], -92.4%; in test [4], -33.3%; in test [5], -28%.

Consider `CCn1nccc1C(=O)N1CCC([C@H]2[C@@H](OC)CN2C(C)C)CC1`, for which the activity change, negative = inhibition in test [1] was -0.11%; in test [2], 4.11%; in test [3] it was 2.11%; in test [4], -2.21%; in test [5], 15%.

With `COC1CCOC2(CCN(C(=O)c3cc(-c4ccccc4)n[nH]3)CC2)C1` (stereo not drawn), the activity change, negative = inhibition was -5% in test [1]; 1.74% in test [2]; 1.34% in test [3]; -0.435% in test [4]; 1.02% in test [5].

Turning to `NC(N)=Nc1nc(CSCC/C(N)=N/S(N)(=O)=O)cs1`, the activity change, negative = inhibition in test [1] is -0.147%; in test [2], 14.1%; in test [3], 0.832%; in test [4] it was -0.396%; in test [5], 7%.

As for `C=C1C(=O)OC2C1CCC1(C)C(O)CC=C(C)C21` (stereo not drawn), the activity change, negative = inhibition was -4.7% in test [1]; -3.19% in test [2]; 6.38% in test [3]; -9.01% in test [4]; 3.21% in test [5].

In the case of `COc1ccc(OC)c2c1cc1n2CC(C)(C(=O)NC2CCCCC2)N(Cc2ccccc2F)C1=O` (stereo not drawn), the activity change, negative = inhibition was -1.23% in test [1]; 3.79% in test [2]; -3.37% in test [3]; 0.481% in test [4]; -3.2% in test [5].

Regarding `CCCn1c(=O)c2ccc(C(=O)NC(C)C)cc2n2c(=O)n(Cc3ccc(Cl)cc3)nc12`, the activity change, negative = inhibition in test [1] was 2.06%; in test [2], 2.6%; in test [3], 7.86%; in test [4], -2.9%; in test [5], 6.75%.

As to `C=C(C(=O)O)[C@@H]1CC=C2CCC[C@H](C)[C@@]2(C)C1`, the activity change, negative = inhibition in test [1] was 0%; in test [2], 4.71%; in test [3], 8.25%; in test [4], -10.1%; in test [5], 4.71%.

In the case of `COc1ccccc1CC(=O)NCCn1cccc1-c1nc(-c2ccccc2)no1`, the activity change, negative = inhibition is -7.36% in test [1]; -14.1% in test [2]; -5.69% in test [3]; -19.8% in test [4]; -26.7% in test [5].

As to `O=C(Nc1nc2ccccc2n1CCc1ccccc1)c1ccccc1`, the activity change, negative = inhibition in test [1] was -4.44%; in test [2], -2.88%; in test [3], 10.5%; in test [4] it was -20%; in test [5], 1.4%.

For the compound `CCCS(=O)c1ccc2nc(NC(=O)OC)[nH]c2c1` (stereo not drawn), the activity change, negative = inhibition in test [1] was -30.1%; in test [2], -36.4%; in test [3], -27.9%; in test [4] it was -41.8%; in test [5], -25.7%.

Take `CN1C(=O)c2cc(C(=O)NCCC3=CCCCC3)nn2CC1(C)C(=O)NCc1ccc(F)cc1` (stereo not drawn): the activity change, negative = inhibition in test [1] was -5.91%; in test [2] it was 1.47%; in test [3], -6.84%; in test [4] it was -1.2%; in test [5] it was -2.46%.

For `CC1(C)CCC2(C(=O)OC3OC(CO)C(O)C(O)C3O)CCC3(C)C(=CCC4C5(C)CCC(O)C(C)(C(=O)O)C5CCC43C)C2C1O` (stereo not drawn), the activity change, negative = inhibition is 1.41% in test [1]; -3.21% in test [2]; 7.6% in test [3]; -14.6% in test [4]; -5.62% in test [5].

As for `Cc1ccc(NC(=O)N2CCn3cccc3C2Cc2ccccc2)cc1Cl` (stereo not drawn), the activity change, negative = inhibition was -9.38% in test [1]; 2.34% in test [2]; -7.26% in test [3]; -8.56% in test [4]; -9.28% in test [5].

`Cc1cnc(-c2ccncc2)n1CC1CCN(C(=O)CCCc2ccccc2)C1` (stereo not drawn): the activity change, negative = inhibition was -6.09% in test [1]; -5.15% in test [2]; -2.33% in test [3]; -14.5% in test [4]; -7.6% in test [5].

On to `Cc1nnc(C[C@@H]2C=C(c3ccc(Cl)cc3)c3ccccc3-n3c(C)nnc32)o1`, for which the activity change, negative = inhibition in test [1] is -21.5%; in test [2] it was -30.3%; in test [3], -19.9%; in test [4], -60.9%; in test [5] it was -11.9%.
